Assay results: PubChem BioAssay AID761 (NMMLSC, 2007)
Screen size: about 190,000 compounds; about 400 (0.21%) were called active. Inconclusive results, whose numbers are uncertain, are shown with a selection of clear calls.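 The calls were made as follows: active = percent activity GTP binding at least 20 points away from the 100% baseline, either down as inhibitor or up as activator; inconclusive = compound flagged as likely green fluorescent from well-wide comparison; inactive = the rest.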

These compounds were tested against Cell division control protein 42 homolog (Homo sapiens) (UniProt P60953) (assay: wildtype Cdc42 fluorescent GTP binding changes, either direction – biochemical, multiplex bead flow cytometry, Bodipy-GTP, primary screen (AID 761;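 also: median bead fluorescence of bound Bodipy-FL-GTP at 100 nM; 0% = excess unlabeled GTP control and 100% = no compound control; below 100% means less GTP binding so inhibitor and above means activator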)). Conditions: GST-Cdc42 beads, at 10 µM, actives lie on both sides.
UniProt P60953, sequence (P60953 whole entry, looked up): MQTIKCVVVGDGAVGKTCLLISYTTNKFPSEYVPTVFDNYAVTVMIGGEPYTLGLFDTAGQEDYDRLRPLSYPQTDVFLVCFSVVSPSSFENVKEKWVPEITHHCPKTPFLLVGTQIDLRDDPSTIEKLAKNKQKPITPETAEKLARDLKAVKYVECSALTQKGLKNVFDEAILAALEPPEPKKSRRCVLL

**Q.** Which percent activity (GTP binding) does the source give for Cc1cccc(NC(=S)N(CCCN2CCOCC2)Cc2ccccn2)c1 here?
**A.** Its percent activity (GTP binding) is inconclusive: 105%.

**Q.** For CCOC(=O)CSc1ccc(C(=O)Nc2ccc(OC)cc2)cn1, which percent activity (GTP binding) is on record?
**A.** Its percent activity (GTP binding) is inactive: 91%.

**Q.** Which percent activity (GTP binding) does the source give for CCN(CC)c1ccc(/C=c2/sc3nnc(-c4ccccc4C)n3c2=O)cc1 here?
**A.** Its percent activity (GTP binding) is inconclusive: 171%.

**Q.** For Cc1ccc(SCC(=O)N2CCc3ccccc32)cc1, which percent activity (GTP binding) is on record?
**A.** The percent activity (GTP binding) was inconclusive: 99%.

**Q.** CCOC(=O)C1=C2SCCN2C(=O)C(C#N)C1(C)C (stereo unspecified) was tested. Which percent activity (GTP binding) did it give?
**A.** The percent activity (GTP binding) was inconclusive: 109%.

**Q.** With COc1ccc(N(C)C(=O)CCS(=O)(=O)c2cccc3nonc23)cc1 as the compound, how does the percent activity (GTP binding) read?
**A.** Its percent activity (GTP binding) is inconclusive: 89%.

**Q.** Which percent activity (GTP binding) does the source give for O=C(NC(=S)Nc1cc(C(F)(F)F)ccc1N1CCOCC1)c1sc2ccccc2c1Cl here?
**A.** Its percent activity (GTP binding) is inconclusive: 102%.

**Q.** With CCOc1ccccc1N1C(=O)CC(N(O)c2ccccc2)C1=O (stereo unspecified) as the compound, how does the percent activity (GTP binding) read?
**A.** The percent activity (GTP binding) was inconclusive: 102%.

**Q.** For CC(C)CCNC(=O)CCCn1c(=O)[nH]c2ccc(Br)cc2c1=O, which percent activity (GTP binding) is on record?
**A.** Its percent activity (GTP binding) is inconclusive: 104%.

**Q.** How did the percent activity (GTP binding) turn out when C/C(CCc1ccccc1)=N\NC(=O)CC(=O)NCCc1ccccc1 was run?
**A.** Its percent activity (GTP binding) is inactive: 100%.

**Q.** Which percent activity (GTP binding) does the source give for O=C(CS(=O)(=O)Cc1ccccc1)N1CCc2ccccc21 here?
**A.** Its percent activity (GTP binding) is inconclusive: 105%.

**Q.** Cn1ncc(Cl)c1C(=O)Nc1nc2ccc(Cl)cc2s1 was tested. Which percent activity (GTP binding) did it give?
**A.** Its percent activity (GTP binding) is inconclusive: 94%.

**Q.** How did the percent activity (GTP binding) turn out when CC(=O)c1cccc(NC(=O)Cc2ccc3c(c2)CCCC3)c1 was run?
**A.** The percent activity (GTP binding) was inactive: 102%.

**Q.** Cc1cccc(NC(=O)[C@H](Cc2ccccc2)NC(=O)OCc2ccccc2)c1 was tested. Which percent activity (GTP binding) did it give?
**A.** The percent activity (GTP binding) was inconclusive: 101%.

**Q.** COc1ccnc(Nc2ccc(C)c(C)c2)c1C#N was tested. Which percent activity (GTP binding) did it give?
**A.** Its percent activity (GTP binding) is inconclusive: 103%.

**Q.** CCCc1cc(-n2ccnc2)n2c(nc3ccccc32)c1C#N was tested. Which percent activity (GTP binding) did it give?
**A.** The percent activity (GTP binding) was inconclusive: 123%.

**Q.** With CCOC(=O)C1(C)Oc2ccc(S(=O)(=O)CC)cc2NC1=O (stereo unspecified) as the compound, how does the percent activity (GTP binding) read?
**A.** The percent activity (GTP binding) was inactive: 95%.

**Q.** Which percent activity (GTP binding) does the source give for COc1ccc(Oc2cnc3ccccc3n2)cc1 here?
**A.** The percent activity (GTP binding) was inconclusive: 94%.

**Q.** How did the percent activity (GTP binding) turn out when O=C(NCCN1CCOCC1)c1csc2c1CCCCC2 was run?
**A.** The percent activity (GTP binding) was inconclusive: 101%.

**Q.** With O=C(CNc1cc(S(=O)(=O)N2CCOCC2)ccc1N1CCCC1)N1CCc2ccccc21 as the compound, how does the percent activity (GTP binding) read?
**A.** Its percent activity (GTP binding) is inactive: 99%.

**Q.** For CC(C)Nc1nnc(SCC(=O)Nc2ccc3c(c2)C(=O)c2ccccc2C3=O)s1, which percent activity (GTP binding) is on record?
**A.** The percent activity (GTP binding) was inconclusive: 88%.

**Q.** Which percent activity (GTP binding) does the source give for Cc1cc(NC(=O)CN2CCN(Cc3ccccc3)CC2)nc2c1c(=O)oc1ccccc12 here?
**A.** The percent activity (GTP binding) was inconclusive: 86%.

**Q.** How did the percent activity (GTP binding) turn out when COc1ccc(/C=C/C(=O)Nc2ccc3nc4n(c(=O)c3c2)CCCC4)cc1 was run?
**A.** The percent activity (GTP binding) was inconclusive: 92%.

**Q.** O=C(N/N=C/c1ccccn1)c1cccc(S(=O)(=O)Nc2ccccc2Cl)c1 was tested. Which percent activity (GTP binding) did it give?
**A.** The percent activity (GTP binding) was inconclusive: 85%.

**Q.** CO/N=C/C(=N\Nc1cc(OC)cc(OC)c1)C(=O)c1ccccc1 was tested. Which percent activity (GTP binding) did it give?
**A.** Its percent activity (GTP binding) is inconclusive: 90%.

**Q.** COc1cc(C(=O)Nc2nc3ccc4nc(C)sc4c3s2)cc(OC)c1OC was tested. Which percent activity (GTP binding) did it give?
**A.** The percent activity (GTP binding) was inconclusive: 102%.
